# The other results are listed elsewhere or left out. These are noisy estimates, calculated here from bound and input reads.
# Target: T1, Pho4 (S. cerevisiae) (UniProt P07270)
# T1 sequence: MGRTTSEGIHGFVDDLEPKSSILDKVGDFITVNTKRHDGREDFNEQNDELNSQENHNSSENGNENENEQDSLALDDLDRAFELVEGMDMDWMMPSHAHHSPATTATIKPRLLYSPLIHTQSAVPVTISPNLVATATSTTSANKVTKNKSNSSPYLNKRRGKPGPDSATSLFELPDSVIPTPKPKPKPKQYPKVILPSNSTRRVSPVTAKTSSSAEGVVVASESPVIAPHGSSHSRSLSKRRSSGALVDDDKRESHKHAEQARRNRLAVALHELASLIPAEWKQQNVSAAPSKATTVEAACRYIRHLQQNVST
# Test: relative binding free energy (BET-seq); higher = weaker binding
# Settings: reference: library average
row,Sequence,relative binding free energy
1,AGGTTCACGTGGCGTA,0.04 kcal/mol
2,ATCGACACGTGGGTTG,-0.17 kcal/mol
3,GTTATCACGTGATGCG,0.27 kcal/mol
4,TAAGGCACGTGGGTGT,-0.2 kcal/mol
5,TCTGTCACGTGGAGAG,0 kcal/mol
6,ATGTGCACGTGATGGC,0.17 kcal/mol
7,ATAAGCACGTGTTGAA,0.03 kcal/mol
8,GAGATCACGTGTAGGT,0.31 kcal/mol
9,TCAGTCACGTGTCGTG,0.21 kcal/mol
10,CGTGGCACGTGGAATT,0.18 kcal/mol
11,CTGGCCACGTGATTGT,0.18 kcal/mol
12,ATTTTCACGTGTTGCC,0.38 kcal/mol
13,AGGAGCACGTGGTTGG,-0.16 kcal/mol
14,AGGGTCACGTGAGGCG,0.17 kcal/mol
15,GGCAACACGTGGGTAG,0.02 kcal/mol
16,GATGTCACGTGATTGA,0.28 kcal/mol
17,ATTTGCACGTGCAAGG,0.01 kcal/mol
18,GTAGCCACGTGGGAGT,-0.2 kcal/mol
19,GCGGGCACGTGTTGTG,-0.03 kcal/mol
20,TTTGTCACGTGTACAT,0.14 kcal/mol
21,TGGGTCACGTGCCGAT,0.08 kcal/mol
22,GGGTGCACGTGGATGC,-0.1 kcal/mol
23,GTTGGCACGTGGGGGG,-0.13 kcal/mol
24,TGATGCACGTGTAGGT,0.07 kcal/mol
25,CTTTACACGTGCTGGG,0.19 kcal/mol
26,GGTATCACGTGGTCTA,0.19 kcal/mol

row,Sequence,relative binding free energy
1,CCGAGCACGTGAGGGG,0.07 kcal/mol
2,GAGAACACGTGGTGGA,0.1 kcal/mol
3,GCGGTCACGTGTCTGT,0.23 kcal/mol
4,TGCTTCACGTGGGGGA,0.05 kcal/mol
5,TAGGACACGTGGTGTG,-0.03 kcal/mol
6,AATAGCACGTGATTTA,0.05 kcal/mol
7,ATCGGCACGTGAGTGA,0.18 kcal/mol
8,AGAAGCACGTGAGTTG,0.15 kcal/mol
9,CGTGGCACGTGGGTTC,-0.24 kcal/mol
10,AATGGCACGTGTGGTG,-0.01 kcal/mol
11,CTGTTCACGTGCTAGG,0.2 kcal/mol
12,ATGTTCACGTGGATCA,0.34 kcal/mol
13,GTATGCACGTGTTGCG,-0.09 kcal/mol
14,CAGCGCACGTGCGGGG,-0.16 kcal/mol
15,TGTTACACGTGGGTGG,0 kcal/mol
16,GTATACACGTGTATCG,0.25 kcal/mol
17,GGAGACACGTGGTTAA,0 kcal/mol
18,TGAATCACGTGCGTAT,0.13 kcal/mol
19,TGCTTCACGTGGAGTT,0.24 kcal/mol
20,AGATGCACGTGTAAGG,0.01 kcal/mol
21,TGTTTCACGTGATGAT,0.35 kcal/mol
22,TTTGTCACGTGTACTA,-0.07 kcal/mol
23,AAGCGCACGTGGGAGG,-0.14 kcal/mol
24,TATTACACGTGAAGTT,0.35 kcal/mol
25,AGGTGCACGTGCAGGC,0.01 kcal/mol
26,TGGGTCACGTGCTGGA,0.07 kcal/mol

row,Sequence,relative binding free energy
1,TGCGACACGTGTGTGG,0.04 kcal/mol
2,TGATGCACGTGAAGGA,0.26 kcal/mol
3,GTGAACACGTGTAGTG,0.1 kcal/mol
4,TTCGACACGTGAGGTG,0.27 kcal/mol
5,TTTTGCACGTGCAGGG,0.04 kcal/mol
6,TGGGACACGTGCTTGC,-0.04 kcal/mol
7,TTTTGCACGTGAACAT,0.16 kcal/mol
8,TGTGACACGTGGCTGA,-0.08 kcal/mol
9,GGCTTCACGTGTGGAG,0.26 kcal/mol
10,ATGAGCACGTGGATGT,-0.12 kcal/mol
11,AGTGACACGTGGTTTA,-0.01 kcal/mol
12,ATAGGCACGTGTGGGC,0.01 kcal/mol
13,AATGGCACGTGTTGGG,0.04 kcal/mol
14,CAGTGCACGTGGTTCG,-0.07 kcal/mol
15,TCGTTCACGTGGTCAT,0.16 kcal/mol
16,CGTGGCACGTGTGGCG,-0.12 kcal/mol
17,TTTATCACGTGTGACG,0.26 kcal/mol
18,CGGTACACGTGAGGGT,0.26 kcal/mol
19,ATGCGCACGTGTAAGT,0 kcal/mol
20,CGTTTCACGTGGTTAA,0.14 kcal/mol
21,TGTCTCACGTGAGAGT,0.49 kcal/mol
22,AGCGCCACGTGGTTGT,-0.15 kcal/mol
23,TTGATCACGTGATGGG,0.27 kcal/mol
24,GGTCGCACGTGAGAGT,0.42 kcal/mol
25,GTGTTCACGTGATGGT,0.48 kcal/mol
26,GTCGTCACGTGGTTTT,0.22 kcal/mol

row,Sequence,relative binding free energy
1,TATGTCACGTGTTGAC,0.2 kcal/mol
2,ATTTTCACGTGAGGCG,0.15 kcal/mol
3,TAGTTCACGTGATTGG,0.56 kcal/mol
4,CTATGCACGTGAGAGT,0.22 kcal/mol
5,GCGTACACGTGATGGT,0.15 kcal/mol
6,GGTCTCACGTGTGTGA,0.21 kcal/mol
7,ATTATCACGTGATGTA,0.37 kcal/mol
8,TAAGTCACGTGGCAGG,0.03 kcal/mol
9,CAAGGCACGTGGAGGG,-0.23 kcal/mol
10,ATATTCACGTGTGCTA,0.24 kcal/mol
11,GTTGACACGTGGGCAT,-0.14 kcal/mol
12,TTTCGCACGTGATATT,0.07 kcal/mol
13,AGGAGCACGTGTTTAT,-0.09 kcal/mol
14,AAGGGCACGTGGAGAG,-0.1 kcal/mol
15,CGGTCCACGTGTAGGG,0.08 kcal/mol
16,GCGTACACGTGGAGGT,0.08 kcal/mol
17,GTTGGCACGTGGTGAC,-0.04 kcal/mol
18,GTCGGCACGTGAGGGG,0.22 kcal/mol
19,TGGTTCACGTGTGACA,0.17 kcal/mol
20,TTTGCCACGTGGTCTG,-0.16 kcal/mol
21,AAATGCACGTGGAGGT,-0.16 kcal/mol
22,GGAATCACGTGAATGG,0.38 kcal/mol
23,GTGCGCACGTGCTGGG,-0.22 kcal/mol
24,GTTTGCACGTGTAGCA,0.01 kcal/mol
25,TACTGCACGTGTATTA,0.03 kcal/mol
26,AATTACACGTGTGAAG,0.06 kcal/mol

row,Sequence,relative binding free energy
1,TTTGGCACGTGAGTCT,0.19 kcal/mol
2,TTGGGCACGTGGGGTG,-0.2 kcal/mol
3,TGTGGCACGTGTAGCG,0.04 kcal/mol
4,TTATGCACGTGGTGCG,-0.16 kcal/mol
5,AAGGTCACGTGATGCG,0.22 kcal/mol
6,GGGATCACGTGTAGTA,0.26 kcal/mol
7,TGGTTCACGTGGCGGC,0.15 kcal/mol
8,AAGTGCACGTGTGTCT,-0.09 kcal/mol
9,TAGTACACGTGTAGGG,0.19 kcal/mol
10,GTGTACACGTGTCATT,0.03 kcal/mol
11,TTGGACACGTGGAGAA,0.1 kcal/mol
12,TGCGACACGTGTTTGG,0.05 kcal/mol
13,AGGTACACGTGGGGGA,-0.18 kcal/mol
14,ATTGCCACGTGGGTGC,-0.19 kcal/mol
15,AAAGACACGTGTTGGG,-0.02 kcal/mol
16,TGGTGCACGTGCCATG,-0.07 kcal/mol
17,GGGTCCACGTGCGTTT,0.19 kcal/mol
18,TTTATCACGTGACGGA,0.27 kcal/mol
19,TAGGGCACGTGGATAT,-0.12 kcal/mol
20,AGGCACACGTGGGGAG,-0.07 kcal/mol
21,CGTTCCACGTGTGGTA,0.1 kcal/mol
22,AATTACACGTGGTGGT,0.13 kcal/mol
23,TATAGCACGTGGGTCA,-0.22 kcal/mol
24,CGGGACACGTGATGAG,0.21 kcal/mol
25,AGGTACACGTGCAGGG,0.08 kcal/mol
26,TGCGTCACGTGCGATG,0.1 kcal/mol

row,Sequence,relative binding free energy
1,GTCGGCACGTGCGGGT,-0.05 kcal/mol
2,ATCCGCACGTGTGGGT,0.04 kcal/mol
3,GATGCCACGTGGTGAG,-0.11 kcal/mol
4,CTGTTCACGTGTTTCG,0.35 kcal/mol
5,TTGAGCACGTGGTTAA,-0.19 kcal/mol
6,GGGGACACGTGGCTAT,-0.12 kcal/mol
7,CGTGACACGTGAGGGA,0.26 kcal/mol
8,ATGGTCACGTGGGATG,0.1 kcal/mol
9,GCGATCACGTGGGTTG,-0.03 kcal/mol
10,AAAGGCACGTGTAGTT,0.01 kcal/mol
11,GTCGGCACGTGTTACG,0.1 kcal/mol
12,TGCCGCACGTGGTGGG,-0.14 kcal/mol
13,ATAGGCACGTGGGTCG,-0.2 kcal/mol
14,TCGGCCACGTGTTGTG,-0.09 kcal/mol
15,TACGGCACGTGGCGGT,-0.2 kcal/mol
16,AGATACACGTGCAGTT,0.22 kcal/mol
17,TTAGTCACGTGATGTA,0.18 kcal/mol
18,GTGTTCACGTGGAGGC,0.15 kcal/mol
19,TTTGTCACGTGGGCTG,-0.03 kcal/mol
20,GAAGGCACGTGGGATT,-0.05 kcal/mol
21,GGGAACACGTGGTAGC,0.13 kcal/mol
22,AGCGTCACGTGTGAAG,0.08 kcal/mol
23,TATTCCACGTGTGTTA,0.07 kcal/mol
24,TGATGCACGTGAAGGG,0.27 kcal/mol
25,GGTAACACGTGGGGCG,-0.01 kcal/mol
26,CGTGTCACGTGGCGGA,0.06 kcal/mol

row,Sequence,relative binding free energy
1,AGTGGCACGTGATTCG,0.05 kcal/mol
2,AACGTCACGTGGTTGT,0.06 kcal/mol
3,ATTGACACGTGGTGCA,-0.14 kcal/mol
4,AGGGACACGTGTGGGG,0.05 kcal/mol
5,AGGGGCACGTGCTTGT,-0.17 kcal/mol
6,TCGTGCACGTGCTTGG,-0.13 kcal/mol
7,CGTAACACGTGTGGTA,-0.03 kcal/mol
8,TGAAACACGTGATATG,0.18 kcal/mol
9,AAATTCACGTGTTTTT,0.3 kcal/mol
10,GGGTTCACGTGGTCGA,0.16 kcal/mol
11,TTGTGCACGTGCTTAT,0.02 kcal/mol
12,AGTATCACGTGGTCGA,0.15 kcal/mol
13,ATTTTCACGTGCTGGG,0.31 kcal/mol
14,GAGGGCACGTGTTCTG,-0.07 kcal/mol
15,GTATGCACGTGGTTGT,-0.04 kcal/mol
16,TTAGTCACGTGTAGCA,0.12 kcal/mol
17,TTGGGCACGTGTGTTT,0.09 kcal/mol
18,TTTTTCACGTGCCTGG,0.25 kcal/mol
19,GTTTACACGTGAGGGT,0.3 kcal/mol
20,AGAGTCACGTGATTTA,0.11 kcal/mol
21,GATAGCACGTGTTGAT,-0.08 kcal/mol
22,TGTTCCACGTGGGTGA,-0.02 kcal/mol
23,CGTGACACGTGGGATT,-0.07 kcal/mol
24,CTGTTCACGTGTCTTT,0.22 kcal/mol
25,CGAGGCACGTGGGACG,-0.11 kcal/mol
26,CCTGGCACGTGTTGTG,-0.02 kcal/mol

row,Sequence,relative binding free energy
1,AGGCTCACGTGGTTAG,0.3 kcal/mol
2,AGTGTCACGTGGGAAC,0.05 kcal/mol
3,GTCTGCACGTGAGAGG,0.29 kcal/mol
4,AATAGCACGTGCGTTG,-0.05 kcal/mol
5,GGCTTCACGTGTTTGT,0.3 kcal/mol
6,GCTTTCACGTGGTCGT,0.24 kcal/mol
7,GAAAACACGTGGAGTG,0.03 kcal/mol
8,GAATTCACGTGTCGTG,0.24 kcal/mol
9,TATGGCACGTGCACGG,-0.24 kcal/mol
10,TGGCGCACGTGGGTGC,-0.27 kcal/mol
11,GGGGGCACGTGAGTTA,0.08 kcal/mol
12,GTTTTCACGTGGCGGG,0.21 kcal/mol
13,TAAGTCACGTGTGTTA,0.11 kcal/mol
14,TGCGTCACGTGGGATA,-0.07 kcal/mol
15,TTGAACACGTGGTAAT,-0.15 kcal/mol
16,ACTGGCACGTGTTATG,-0.06 kcal/mol
17,ATGAGCACGTGGGCTT,-0.17 kcal/mol
18,CAGGTCACGTGAGGTG,0.27 kcal/mol
19,CGTATCACGTGGTGAT,0.1 kcal/mol
20,ATTTACACGTGCTTTT,-0.03 kcal/mol
21,CTCAGCACGTGGGGGT,-0.1 kcal/mol
22,TTTGGCACGTGGAGTC,-0.01 kcal/mol
23,TTGTCCACGTGTGCAT,0.04 kcal/mol
24,GTTTTCACGTGGGAAG,0.28 kcal/mol
25,GCTGTCACGTGTAGTG,-0.04 kcal/mol
26,AGGCTCACGTGATGTA,0.34 kcal/mol

row,Sequence,relative binding free energy
1,TTCAGCACGTGTGCTG,-0.05 kcal/mol
2,AGCGTCACGTGGTAAT,0.05 kcal/mol
3,ATCGTCACGTGTAAGG,0.1 kcal/mol
4,TAATTCACGTGATTGT,0.28 kcal/mol
5,GGAAACACGTGGCTTG,-0.02 kcal/mol
6,TGGAACACGTGGTGCT,-0.04 kcal/mol
7,AAAGCCACGTGGGGTG,-0.27 kcal/mol
8,TTACTCACGTGAGTAT,0.38 kcal/mol
9,TTGTGCACGTGTCTGC,-0.01 kcal/mol
10,GAGCGCACGTGTGTGA,-0.04 kcal/mol
11,ATTTACACGTGTTATC,0.06 kcal/mol
12,TGTAGCACGTGTTGGC,0.07 kcal/mol
13,CGTGTCACGTGACTGG,0.05 kcal/mol
14,GAGGACACGTGCGGGA,0.08 kcal/mol
15,AGTTCCACGTGGTGAG,0.11 kcal/mol
16,CTGTTCACGTGTAATT,0.13 kcal/mol
17,ATTGCCACGTGTTTGT,-0.17 kcal/mol
18,GTATGCACGTGAGGAG,0.25 kcal/mol
19,TGTTTCACGTGGTAGA,0.19 kcal/mol
20,GTGTTCACGTGACTTA,0.42 kcal/mol
21,GGAGGCACGTGGTGCG,-0.12 kcal/mol
22,TATGACACGTGGGATA,-0.12 kcal/mol

# Source: the BET-seq Pho4 binding data (Le et al. 2018)
